Hit rate of the full screen: of about 43,000 compounds, about 200 (0.47%) were called active. Not shown: some 12% with an inconclusive outcome. Calls follow the shape of the dose curve; as a rule, active = well fitted cell-killing curve with a large enough effect; inconclusive = small, poorly fitted or top-dose-only effect, or effect the other way; inactive = flat fitted curve, though single readings scatter. Some of the results follow.
% is scaled to controls: 0 for no effect and ±100 for the full control effect.

The assay is described as follows: Cell viability qHTS assay in S16 Pmp22-F2sN cells. Also: nearly all actives have a fitted effect of over 65% in size. The settings on record: S16 Pmp22-F2sN Schwann cells viability, CellTiter-Glo, 24 h; series mostly up to 57.5 µM; activity change, negative = cytotoxicity: at the top concentration. In short, it runs like this:
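S16 Pmp22-F2sN Schwann cells (500-1,000/well) in phenol-red-free DMEM with 10% FBS received 23 nL compound by pin tool for 24 h at 37 °C. Viability was then read as CellTiter-Glo luminescence after 15 min at room temperature.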
Turning to `COc1ccc(CNC(=O)CCc2nc3cccnc3n2Cc2ccccc2)cc1`, the “activity change, negative = cytotoxicity” value is inactive: -13.9%.

With `CCOc1ccc(CCNC(=O)C(C)n2nc(C)n3c(cc4occc43)c2=O)cc1OCC` (stereo not given), the “activity change, negative = cytotoxicity” value was inactive: -1.19%.

For `Cc1ccc(Cl)cc1N1CCN(C(=O)c2cn(C)c3ccc(S(=O)(=O)N(C)C4CCCCC4)cc3c2=O)CC1`, the “activity change, negative = cytotoxicity” value was inactive: 6.16%.

Take `CC(=O)Nc1ccc(NC(=O)C(Cc2ccccc2)N2Cc3ccccc3C2=O)cc1` (stereo not given): the “activity change, negative = cytotoxicity” value was inactive: -0.64%.

`Cc1cccc(N2CCN(C(=O)c3c(C)oc4nc(C)nc(N5CCCC5)c34)CC2C)c1` (stereo not given): the “activity change, negative = cytotoxicity” value is inactive: 1.85%.

Consider `Cc1ccc(NC(=O)Cn2c(=O)n(CCC(=O)NCCc3ccccc3)c(=O)c3ccccc32)cc1`, for which the “activity change, negative = cytotoxicity” value was inactive: 18.9%.

In the case of `CCc1ccc(OCC(=O)N(Cc2ccco2)Cc2ccco2)cc1`, the “activity change, negative = cytotoxicity” value was inactive: -20.1%.

As for `COc1ccc(NC(=O)c2cc3c([nH]c2=O)CC(c2ccccc2)CC3=O)cc1` (stereo not given), the “activity change, negative = cytotoxicity” value is inactive: -3.5%.

Regarding `CCCOc1ccc(OC(=O)c2c(-c3ccccc3Cl)noc2C)cc1`, the “activity change, negative = cytotoxicity” value was inactive: -21.6%.

`COc1ccc(NC(=O)Cn2c(=O)n(-c3ccc(CC(=O)NCC4CCCO4)cc3)c(=O)c3ccccc32)c(OC)c1` (stereo not given): the “activity change, negative = cytotoxicity” value was inactive: 29.9%.

In the case of `COc1ccc(NC(=O)c2ccc3c(c2)c(C)c(C)n3Cc2ccc(F)cc2)c(OC)c1`, the “activity change, negative = cytotoxicity” value is inactive: -12.9%.

In the case of `COc1ccc(C2=Nn3c(nc4sc(C(=O)Nc5cccc(C)c5)c(C)c4c3=O)SC2)cc1`, the “activity change, negative = cytotoxicity” value was inactive: 0.202%.

As to `COc1cccc(CN2C(=O)c3ccccc3Sc3ccc(C(=O)NCCc4ccc(Cl)cc4)cc32)c1`, the “activity change, negative = cytotoxicity” value was inactive: -4.21%.

For the molecule `COc1ccc(-c2nn3c(-c4ccc(C)cc4)nnc3c3ccccc23)cc1`, the “activity change, negative = cytotoxicity” value was inactive: 8.21%.

With `Cc1cccc(NCc2nnc3n2CCCCC3)c1C`, the “activity change, negative = cytotoxicity” value was inactive: 8.27%.

`CN(C(=O)c1ccc2c(c1)N(Cc1ccccc1F)C(=O)c1ccccc1S2)C1CCCCC1`: the “activity change, negative = cytotoxicity” value is inactive: -11.7%.

With `COc1ccccc1N1CCN(c2nc3ccc(C)cc3nc2-n2nc(C)cc2C)CC1`, the “activity change, negative = cytotoxicity” value was inactive: -0.805%.

Take `CCOC(=O)c1c(C)n(-c2ccccc2)c2ccc(OC(=O)c3ccc(OCC)c(OCC)c3)cc12`: the “activity change, negative = cytotoxicity” value was inactive: -10.6%.

`Cc1cccc(-c2noc(-c3ccc(NCC4CCCO4)c([N+](=O)[O-])c3)n2)c1` (stereo not given): the “activity change, negative = cytotoxicity” value is inactive: 3.51%.

Consider `COc1ccccc1NC(=O)CCn1nc(-c2ccccc2)c2ccccc2c1=O`, for which the “activity change, negative = cytotoxicity” value is inactive: -21.9%.

In the case of `O=C(C1CCN(c2nc3ccccc3[nH]2)CC1)N1CCN(c2ccccc2)CC1`, the “activity change, negative = cytotoxicity” value was inactive: 10.1%.

In the case of `Cc1cc(C)cc(OCc2cc(=O)n3cc(C)sc3n2)c1`, the “activity change, negative = cytotoxicity” value was inactive: 14.3%.

With `CCn1c(SCC(=O)c2ccc([N+](=O)[O-])cc2)nnc1-c1ccc(Cl)cc1`, the “activity change, negative = cytotoxicity” value is inactive: 23%.

Consider `CCOC(=O)c1scc(-c2ccc(C)cc2)c1S(=O)(=O)Nc1cc(Cl)ccc1OC`, for which the “activity change, negative = cytotoxicity” value is inactive: 7.34%.

Consider `COc1cccc(CNC(=O)Cn2cc3c(n2)-c2c(oc(C(=O)N4CCCC4)c2C)CC3)c1`, for which the “activity change, negative = cytotoxicity” value was inactive: 0.529%.

Regarding `CCc1ccc(NC(=O)Cn2ncc3c4ccccc4n(C)c3c2=O)cc1`, the “activity change, negative = cytotoxicity” value was inactive: 4.18%.

In the case of `O=C(CC1N=C2c3ccccc3N=C(SCc3ccc(F)cc3)N2C1=O)NCc1cccs1` (stereo not given), the “activity change, negative = cytotoxicity” value is inactive: 4.38%.

Consider `CCN(CC)C(=O)c1sc2c(c1C)c(=O)n(-c1ccccc1)c(=O)n2Cc1cc(=O)n2ccccc2n1`, for which the “activity change, negative = cytotoxicity” value was inactive: -1.46%.

Turning to `Clc1cccc(-c2csc(-c3nc(-c4ccc(Br)s4)cs3)n2)c1`, the “activity change, negative = cytotoxicity” value is inactive: 2.78%.

As to `COC(=O)Cn1c(CN2CCN(c3ccc(OC)cc3)CC2)nc2c1c(=O)[nH]c(=O)n2C`, the “activity change, negative = cytotoxicity” value was inactive: 3.59%.

With `CCOc1ccc(NC(=O)c2cc(S(=O)(=O)NC3CCCC3)ccc2F)cc1`, the “activity change, negative = cytotoxicity” value was inactive: 3.92%.

Turning to `CCOC(=O)c1c(S(=O)(=O)NCC(=O)Nc2cccc(CC)c2)c(C)n(C)c1C`, the “activity change, negative = cytotoxicity” value was inactive: 0.207%.

`CCc1ccc(NC(=O)CSc2nc(-c3ccccc3)c(C#N)c(=O)[nH]2)cc1`: the “activity change, negative = cytotoxicity” value was inactive: 0.971%.

Turning to `CCCCn1cc(S(=O)(=O)c2ccc(OC)cc2)c(=O)c2cc(F)c(F)cc21`, the “activity change, negative = cytotoxicity” value was inactive: -15.2%.

As for `CCOc1ccc(CNC(=O)C2CCCN(S(=O)(=O)c3ccc4c(c3)CCCC(=O)N4)C2)cc1` (stereo not given), the “activity change, negative = cytotoxicity” value is inactive: -3.61%.

As to `Cc1cccc(-c2nc(SCC(=O)Nc3cccc(C(F)(F)F)c3)n3[nH]c(=O)cc3n2)c1`, the “activity change, negative = cytotoxicity” value was inactive: -19.4%.

In the case of `Cc1ccc(OCc2nc(-c3ccc(C(=O)N4CCN(c5ccc(Cl)cc5)CC4)cc3)oc2C)cc1`, the “activity change, negative = cytotoxicity” value is inactive: 12.1%.

As for `CCCCCCn1c(CNC(=O)c2ccccc2)nc2ccccc21`, the “activity change, negative = cytotoxicity” value was inactive: 4.95%.

In the case of `CCCn1c(=O)sc2cc(NC(=O)c3ccccc3OCC)ccc21`, the “activity change, negative = cytotoxicity” value was inactive: 3.97%.

Consider `Cc1cc(C(=O)NCc2ccccc2C)c2c(C)nn(-c3cccc(F)c3)c2n1`, for which the “activity change, negative = cytotoxicity” value is inactive: -3.3%.

Regarding `CCOC(=O)C1=C(CN2CCN(CC)CC2)NC(=O)NC1c1ccc(Cl)cc1` (stereo not given), the “activity change, negative = cytotoxicity” value is inactive: -1.64%.

Consider `COc1ccc(CNC(=O)c2nnn(CC(=O)Nc3cc(C)cc(C)c3)c2N)cc1`, for which the “activity change, negative = cytotoxicity” value is inactive: -2.52%.

With `COc1ccccc1C(=O)NC1(C(F)(F)F)C(=O)Nc2c1c(=O)[nH]c(=O)n2CCc1ccccc1` (stereo not given), the “activity change, negative = cytotoxicity” value was inactive: -2.43%.

`Cc1ccc(C)c(CN2CCCN(Cc3cc(C)ccc3C)S2(=O)=O)c1`: the “activity change, negative = cytotoxicity” value was inactive: -7.03%.

`CCCn1c(SCC(O)c2cccc(OC)c2)nc2ccccc21` (stereo not given): the “activity change, negative = cytotoxicity” value is inactive: 9.26%.

`O=C(Nc1ccc(N2CCN(CCOc3ccc(Cl)cc3)CC2)c(C(=O)O)c1)c1ccc(F)cc1`: the “activity change, negative = cytotoxicity” value was inactive: 29.4%.

Turning to `Cc1ccc(S(=O)(=O)C(CNC(=O)C(=O)NCCc2ccccc2)c2ccco2)cc1` (stereo not given), the “activity change, negative = cytotoxicity” value is inactive: -16.4%.

Turning to `CCc1nc2ccccc2n1CCCCOc1ccccc1C`, the “activity change, negative = cytotoxicity” value was inactive: -14.2%.

For `CCc1ccccc1NC(=O)Cn1c(=O)nc(-c2ccccc2)c2ccccc21`, the “activity change, negative = cytotoxicity” value was inactive: 6.83%.

`COc1ccc(CCNC(=O)CCn2c(=O)c3ccccc3n(Cc3ccc(Cl)cc3)c2=O)cc1OC`: the “activity change, negative = cytotoxicity” value is inactive: -14.9%.

In the case of `COc1ccc(S(=O)(=O)c2cn(Cc3ccccc3)c3cc(N4CCCC4)c(F)cc3c2=O)cc1`, the “activity change, negative = cytotoxicity” value is inactive: -7.83%.

As to `COc1ccc(CCNC(=O)CCCCn2c(=O)c3ccccc3n(CC(=O)Nc3ccccc3C)c2=O)cc1OC`, the “activity change, negative = cytotoxicity” value is inactive: 8.09%.

Regarding `CCCOc1cccc(C(=O)Nc2ccc(-c3nc4ccccc4s3)c(Cl)c2)c1`, the “activity change, negative = cytotoxicity” value is inactive: 4.54%.

In the case of `CCN1C(C(=O)c2ccccc2)=C(OC(=O)C(C)C)c2ccccc2S1(=O)=O`, the “activity change, negative = cytotoxicity” value is inactive: -11.3%.

Consider `CCCC(O)c1nc2ccccc2n1CCCCOc1ccc(OC)cc1` (stereo not given), for which the “activity change, negative = cytotoxicity” value was inactive: -1.92%.

On to `Cc1cc(C)cc(NC(=O)CSc2nncn3c2cc2occc23)c1`, for which the “activity change, negative = cytotoxicity” value is inactive: -1.33%.

As to `COc1ccc(CNC(=O)C2CCN(c3nc4ccc(C)cc4[nH]3)CC2)cc1`, the “activity change, negative = cytotoxicity” value was inactive: 0.113%.

Take `CCOc1ccc(CCNC(=O)Cn2nc(CC)n3c(cc4sc(CC)cc43)c2=O)cc1OCC`: the “activity change, negative = cytotoxicity” value is inactive: 0.666%.

On to `CCCCCn1c(=N)c(S(=O)(=O)c2ccccc2)cc2c(=O)n3ccccc3nc21`, for which the “activity change, negative = cytotoxicity” value was inactive: 10.8%.

As to `CC(NC(=O)c1ccc2c(c1)N(Cc1ccc(Cl)cc1)C(=O)c1ccccc1S2(=O)=O)c1ccccc1` (stereo not given), the “activity change, negative = cytotoxicity” value is inactive: 20.5%.
